The full ranking holds about 33,000 sequences; the median of “E-score (-0.5 to 0.5)” is about -0.012, and the highest 2% start at about 0.29. The list shows a part of the results.
Molecular target: T1, Ybr033w (UniProt P38073)
T1 sequence: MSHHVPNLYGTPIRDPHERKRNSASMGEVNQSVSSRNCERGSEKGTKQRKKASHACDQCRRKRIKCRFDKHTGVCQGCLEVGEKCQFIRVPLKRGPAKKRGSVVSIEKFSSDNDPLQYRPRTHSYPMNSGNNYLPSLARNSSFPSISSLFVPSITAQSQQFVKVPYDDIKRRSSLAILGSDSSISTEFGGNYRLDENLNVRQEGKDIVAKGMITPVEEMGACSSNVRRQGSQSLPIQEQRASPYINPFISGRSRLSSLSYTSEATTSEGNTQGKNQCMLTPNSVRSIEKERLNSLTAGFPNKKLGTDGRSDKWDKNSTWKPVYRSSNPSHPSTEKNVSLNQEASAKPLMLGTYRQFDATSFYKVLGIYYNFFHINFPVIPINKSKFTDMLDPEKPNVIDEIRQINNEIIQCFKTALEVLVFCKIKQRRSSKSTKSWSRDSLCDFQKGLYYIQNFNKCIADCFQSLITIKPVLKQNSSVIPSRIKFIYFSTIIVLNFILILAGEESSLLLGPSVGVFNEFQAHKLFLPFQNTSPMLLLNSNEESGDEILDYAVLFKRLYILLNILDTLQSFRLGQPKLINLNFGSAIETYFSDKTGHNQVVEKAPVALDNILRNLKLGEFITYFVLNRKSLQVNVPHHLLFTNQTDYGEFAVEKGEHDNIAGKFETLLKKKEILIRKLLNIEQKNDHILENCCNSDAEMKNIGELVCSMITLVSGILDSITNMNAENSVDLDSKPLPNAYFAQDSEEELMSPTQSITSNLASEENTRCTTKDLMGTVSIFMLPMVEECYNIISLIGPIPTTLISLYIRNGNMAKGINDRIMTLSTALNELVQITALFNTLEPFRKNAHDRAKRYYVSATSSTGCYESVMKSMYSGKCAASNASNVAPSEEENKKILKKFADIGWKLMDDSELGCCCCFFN
Assay: PBM E-score (8-mer binding enrichment) (E-score (-0.5 to 0.5)); higher = stronger / more preferred TF binding; most listed sequences are background and not binding sites
Details: protein concentration: 200 nM; construct: GST-full length
Outline: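 Using PURExpress in vitro transcription/translation, GST-tagged yeast transcription factors were made in full-length or DNA-binding-domain form. These were applied at about 100-200 nM to double-stranded universal all-10-mer Agilent arrays, and bound protein was detected with fluorescent anti-GST. Scans were normalised with masliner before the Universal PBM Analysis Suite assigned E-scores to ungapped eight-base words pooled with their reverse complements.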

| Sequence | PBM E-score |
| --- | --- |
| GGGACCCC | -0.33 |
| AAGGAGGT | -0.256 |
| CTCCTCGC | -0.257 |
| ATATGCGG | -0.0555 |
| AGCCGCTC | -0.0937 |
| ACGGAGTG | -0.0703 |
| AGCGCCAT | -0.223 |
| CAAGTACC | -0.111 |
| AGGTCGGC | -0.115 |
| AACTCTAG | -0.00073 |
| AGATCCCT | -0.163 |
| TATGTGGA | 0.195 |
| ATGACCGG | -0.357 |
| GATTCTCC | 0.155 |
| AGTATTTC | 0.34 |
| CCCCTGAC | -0.14 |
| CCCTTCAA | -0.159 |
| AAACTCGT | 0.185 |
| AAATCGGT | -0.0416 |
| TAGGAGAA | 0.0551 |
| ACTCGAGC | -0.0991 |
| CAGTTAGC | -0.0937 |
| AACGATCA | 0.195 |
| AAACTGAG | -0.018 |
| GTGGCCGA | -0.174 |

| Sequence | PBM E-score |
| --- | --- |
| AGCAGGAC | -0.0888 |
| GTGGATTA | 0.164 |
| CACTCAGA | -0.0316 |
| AAGGGGAA | -0.233 |
| ATAAGCGG | -0.0643 |
| AATCTGGG | 0.00147 |
| GCACCCAC | -0.0839 |
| AACAGACT | 0.0277 |
| AGCTAGGA | 0.0422 |
| ACTAGGAT | 0.0472 |
| CCCGTACC | -0.111 |
| AGTAGAAG | 0.0782 |
| AAGACAGT | 0.0667 |
| ACAGGGGC | -0.265 |
| CCCCGAAC | -0.183 |
| CAGTGGTA | -0.0548 |
| CAGAGCGA | 0.105 |
| GTGGTTTA | 0.034 |
| TTATTCAA | 0.253 |
| AGGGGCGA | -0.321 |
| AACCCTCG | -0.175 |
| GCGCGCCA | 0.0819 |
| ACATCTAA | 0.0234 |
| CCTCGCAA | -0.14 |
| AGGGTCCA | -0.217 |

| Sequence | PBM E-score |
| --- | --- |
| ATGATAGG | -0.0354 |
| AGTCAAAT | 0.188 |
| GCATACGC | -0.0482 |
| AGCAGTAA | 0.0321 |
| CGCTTCAC | -0.0967 |
| GGGGAACA | 0.00453 |
| ATACCCGA | 0.0226 |
| ACTCTTGC | -0.0574 |
| AGAGTAGG | 0.0322 |
| ATCTGAGG | 0.0161 |
| GAATTGTC | -0.0273 |
| CGACCCAA | -0.107 |
| ACGTTCTC | 0.142 |
| AGCAGAGG | -0.268 |
| CTCCCGCC | -0.191 |
| TCCAGAAA | 0.171 |
| CAGTTACG | -0.2 |
| CTAAGTGA | 0.17 |
| ATGCTATC | 0.0225 |
| ACTGTGAA | 0.0984 |
| ACTCGATC | -0.00471 |
| GGTGAGAA | 0.0936 |
| CACTTGCA | -0.0412 |
| CAAGGCGA | -0.246 |
| AGGAAACG | 0.0312 |

| Sequence | PBM E-score |
| --- | --- |
| TGAGGCAA | -0.00163 |
| CCCGTAAC | -0.094 |
| ACTCTATG | -0.106 |
| ACGGTCAG | -0.252 |
| CTCCGGAG | 0.00475 |
| GACTTAGA | -0.058 |
| ACATTGAG | 0.0191 |
| CAACAAAA | 0.139 |
| TCCGCGGA | -0.037 |
| CACCCTTC | -0.192 |
| TTACATAA | 0.271 |
| CACAACTC | 0.125 |
| ATGCATCA | 0.263 |
| AAACGCCC | -0.0301 |
| GCATCTCA | 0.0768 |
| CAAACAAG | 0.0729 |
| ATACAAGG | 0.11 |
| CTTTATCA | 0.198 |
| GCAGCGCA | -0.171 |
| ACCGGCAA | -0.207 |
| AACAGCCG | -0.0717 |
| CAGATGAA | 0.0518 |
| GACGACAC | 0.0332 |
| ACAGCATA | 0.0939 |
| AGTTTACC | 0.131 |

| Sequence | PBM E-score |
| --- | --- |
| CCTAGGCC | -0.125 |
| AGATTCAG | 0.014 |
| CAAAGGGG | -0.201 |
| ACTCTCCT | -0.188 |
| CGGAGTGA | 0.0416 |
| AGCCAGCG | -0.201 |
| ACTCTCTA | 0.0813 |
| CAAAGATC | 0.188 |
| AATGTCAG | -0.0558 |
| GCCGACGC | -0.141 |
| ACCCAGCA | -0.163 |
| ATCATCTA | 0.19 |
| ATCCTAAT | 0.0746 |
| ATAGTGAC | 0.117 |
| CATTGGCG | -0.154 |
| CCTTGTTC | -0.124 |
| CACCCAGA | -0.0258 |
| GCAGCGAA | 0.0437 |
| CTACAGAC | -0.057 |
| AGGAACAG | -0.0964 |
| ATTCTAGG | 0.0155 |
| GATGTGCA | -0.0129 |
| ATCAAATA | 0.228 |
| ATGTTTTC | 0.247 |
| CAAGAACG | -0.0132 |

| Sequence | PBM E-score |
| --- | --- |
| ATGACGTA | 0.108 |
| ATGGTTGC | -0.219 |
| AGCTCACG | -0.088 |
| ACAAAGCA | 0.169 |
| ACTTAACA | 0.16 |
| CGCTACAC | -0.191 |
| ATACCTGC | -0.0785 |
| CGAGACAA | 0.0277 |
| AGCTAATG | 0.0499 |
| CCATTCAA | 0.0756 |
| ATCGTAAT | 0.194 |
| AATGTGTA | 0.113 |
| CACTATAC | 0.125 |
| GGAGACAC | -0.189 |
| AGGGACGG | -0.347 |
| CGCCGCGC | -0.227 |
| GAGTGAAC | -0.0174 |
| CAGAAGCC | -0.125 |
| TATCGCAA | 0.245 |
| CTTGCTGC | -0.0279 |
| CGTTCAAC | 0.067 |
| GATGCAAC | -0.0518 |
| TTAAGGAA | 0.218 |
| CTAGATCA | 0.00896 |
| ACCGTGAG | -0.181 |

| Sequence | PBM E-score |
| --- | --- |
| AGGAAAGG | -0.215 |
| ACACGAAG | 0.108 |
| CCTAACAG | 0.0161 |
| TCGCCTAA | -0.0224 |
| GCTTATTA | 0.0754 |
| CATGGCTA | 0.0397 |
| ACGTTATG | 0.115 |
| AGCTCATC | -0.205 |
| AACTCGAA | -0.085 |
| CGCAGTAC | -0.0569 |
| GACGGGCA | -0.305 |
| AAACTAGT | 0.136 |
| GATTCCGA | 0.129 |
| CGCTCTTC | -0.0286 |
| AAAGATTA | 0.203 |
| ATGAGCGC | 0.0495 |
| GGACAGAA | -0.0539 |
| CATCCCGC | -0.173 |
| ACTCGCCG | 0.0687 |
| CAGACTCA | -0.0754 |
| GTACACCA | -0.0592 |
| AGCCGCGA | -0.188 |

Source: the supplement of paper PMC3334620
